Test results from article PMC4336329 (PLoS ONE, 2015).
Out of some 310,000 compounds screened, about 2,200 (0.71%) showed an effect of 50% or more. Effects have a minus sign here. This is one part of the list.

These molecules were tested against human ether-à-go-go-related gene (hERG) potassium channel (human, UniProt Q12809) (assay: primary screen, population patch clamp on CHO cells stably expressing hERG).
human ether-à-go-go-related gene (hERG) potassium channel, sequence (Q12809 whole entry, looked up): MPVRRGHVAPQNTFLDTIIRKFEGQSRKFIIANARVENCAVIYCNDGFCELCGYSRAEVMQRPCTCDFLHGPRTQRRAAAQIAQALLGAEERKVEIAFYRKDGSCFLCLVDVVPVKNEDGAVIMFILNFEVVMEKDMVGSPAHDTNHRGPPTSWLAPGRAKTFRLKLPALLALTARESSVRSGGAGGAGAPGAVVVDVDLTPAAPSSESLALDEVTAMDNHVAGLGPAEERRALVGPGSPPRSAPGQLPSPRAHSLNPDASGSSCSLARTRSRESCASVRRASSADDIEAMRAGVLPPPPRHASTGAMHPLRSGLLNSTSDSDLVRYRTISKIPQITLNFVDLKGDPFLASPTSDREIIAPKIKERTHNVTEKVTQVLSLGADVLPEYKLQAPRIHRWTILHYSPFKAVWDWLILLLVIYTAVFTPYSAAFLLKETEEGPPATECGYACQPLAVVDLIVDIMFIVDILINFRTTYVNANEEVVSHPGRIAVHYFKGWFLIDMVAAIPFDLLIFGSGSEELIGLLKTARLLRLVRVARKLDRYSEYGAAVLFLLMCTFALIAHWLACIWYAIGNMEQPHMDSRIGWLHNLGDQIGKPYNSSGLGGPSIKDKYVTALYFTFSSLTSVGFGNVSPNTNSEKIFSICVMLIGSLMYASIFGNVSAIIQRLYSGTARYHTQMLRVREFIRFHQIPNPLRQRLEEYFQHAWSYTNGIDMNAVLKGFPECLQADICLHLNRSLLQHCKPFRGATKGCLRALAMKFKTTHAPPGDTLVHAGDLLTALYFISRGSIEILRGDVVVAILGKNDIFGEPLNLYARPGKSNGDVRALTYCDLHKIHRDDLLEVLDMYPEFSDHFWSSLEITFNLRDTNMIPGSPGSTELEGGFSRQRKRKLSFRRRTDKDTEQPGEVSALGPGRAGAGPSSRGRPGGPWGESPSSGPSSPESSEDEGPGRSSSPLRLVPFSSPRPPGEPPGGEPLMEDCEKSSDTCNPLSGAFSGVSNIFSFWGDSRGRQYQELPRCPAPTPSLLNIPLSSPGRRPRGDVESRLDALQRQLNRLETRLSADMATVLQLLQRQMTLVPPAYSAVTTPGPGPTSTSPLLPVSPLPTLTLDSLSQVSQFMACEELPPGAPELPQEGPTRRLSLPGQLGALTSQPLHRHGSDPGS

SMILES	hERG current change (%, negative = inhibition) at 1uM [%]
Cc1cccc(OCCSc2nc3ccccc3n2CC(=O)O)c1	10.1
COc1ccc(/C=N/NC(=O)CCn2cnc3ccccc32)cc1	12.8
CCCCC(=O)NNC(=S)NC(=O)c1cccc([N+](=O)[O-])c1	9.93
Cc1csc(NC(=O)CCS(=O)(=O)c2ccc(Br)cc2)n1	9.47
Cc1cccc(N2CC(O)=C(c3nc4ccccc4n3C)C2=N)c1	-8.63
CCCCCc1cc(=O)oc2c(C(CCN3CCN(c4ccccc4)CC3)c3ccc4c(c3)OCO4)c(OC)cc(OC)c12 (stereo not shown)	16.1
CCCCNC(=O)C1CCCN(S(=O)(=O)c2ccc(-n3cnnn3)cc2)C1 (stereo not shown)	-0.0403
O=C(c1ccc(F)cc1)n1c(NCc2ccccc2)n[nH]c1=S	4.04
COC(=O)c1cc(Cl)c(NC(=O)Cc2ccccc2)cc1OC	10.2
COc1cccc(NCc2cc(=O)oc3cc(-c4ccccc4)c(O)cc23)c1	12.6
Cc1ccc(CNc2ccc3c(c2)OCO3)cc1	5.08
O=C(c1ccc2c(c1)OCO2)N1CCNc2ccccc2C1	4.55
CSc1cccc(N=C2C(=O)Nc3ccccc32)c1	7.79
CCOC(=O)c1sc(N)c(C(=O)OCC)c1COC(=O)C1CC(=O)N(Cc2ccco2)C1 (stereo not shown)	4.29
O=C(Nc1ccc(N2CCCCC2)cc1)c1ccccn1	20.8
Cc1noc(C)c1C(=O)OC(C)C(=O)N1CCc2ccccc21 (stereo not shown)	13.3
C=CCCC(=O)N1CCC(CCC(=O)NC2CC2)CC1	1.12
CN=C(Nc1cc(C)nn1CCC#N)c1ccccc1F	1.18
CCOc1ccc(C(NC(=O)c2ccco2)c2ccc(OC)c(OC)c2)cc1 (stereo not shown)	9.16
O=C(CCC1CCCC1)N1CCN(C2CCCC2)CC1.O=C(O)C(=O)O	-21.4
CC(=O)c1cccc(NC(=O)CCc2nnc3ccc(N4CCN(C)CC4)nn23)c1	14.4
Cc1ccc(OCCn2c(=S)[nH]c3ccccc32)c(C(C)C)c1	9.69
Cc1cccc(CC2SC(N3CCN(c4ccccc4)CC3)=NC2=O)c1 (stereo not shown)	7.67
CCC1Sc2ccc(S(=O)(=O)CCC(=O)Nc3ccc(OC(F)(F)F)cc3)cc2NC1=O (stereo not shown)	15.3
CCOC(=O)N1CCN(Cc2nc3c(c(=O)n(C)c(=O)n3C)n2CCC(C)C)CC1	0.807
